The list shows a part of the results. These are further read-outs of the screen, such as a control signal, another cell line or another target. No call is given for them.
Key:
Experiment in all cases: Primary Screen for Target Class Profiling of Small Molecule Inhibitors of Methyltransferases
[1] = target: Glycine N-methyltransferase (Homo sapiens) (UniProt Q14749); details: purified enzyme, MTase-Glo SAH luminescence; measured here: GNMT inhibition; at 40 µM; stronger effect = lower value
Summary of the method: (§1)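 Each enzyme was assayed with SAM and its substrate. SAH formation detected by MTase-Glo luminescence; single-point 40 uM screen[…].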

[2] = target: Guanidinoacetate N-methyltransferase (Homo sapiens) (UniProt Q14353); details: purified enzyme, MTase-Glo SAH luminescence; measured here: GAMT inhibition; at 40 µM; stronger effect = lower value
Summary of the method: as §1

[3] = target: Histamine N-methyltransferase (Homo sapiens) (UniProt P50135); details: purified enzyme, MTase-Glo SAH luminescence; measured here: HNMT inhibition; at 40 µM; stronger effect = lower value
Summary of the method: as §1

[4] = target: Nicotinamide N-methyltransferase (Homo sapiens) (UniProt P40261); details: purified enzyme, MTase-Glo SAH luminescence; measured here: NNMT inhibition; at 40 µM; stronger effect = lower value
Summary of the method: as §1

[5] = target: Phenylethanolamine N-methyltransferase (Homo sapiens) (UniProt P11086); details: purified enzyme, MTase-Glo SAH luminescence; measured here: PNMT inhibition; at 40 µM; stronger effect = lower value
Summary of the method: as §1
% is set by controls: 0 for no effect and ±100 for the full control effect.

| SMILES | activity change, negative = inhibition [1] [%] | activity change, negative = inhibition [2] [%] | activity change, negative = inhibition [3] [%] | activity change, negative = inhibition [4] [%] | activity change, negative = inhibition [5] [%] |
| --- | --- | --- | --- | --- | --- |
| COc1ccc(CCNC(=O)CCCc2nnc3n4nc(C)nc4c4ccccc4n23)cc1OC | -7.65 | 5.25 | 5.01 | 9.16 | -0.725 |
| Cc1csc(NC(=O)[C@@H]2C[C@@H](c3ccc(F)cc3)N([S+](=O)([O-])c3cccnc3)C2)n1 | -8.12 | -3.53 | -1.35 | -12.6 | 7.23 |
| CCn1nc(C(C)C)cc1C(=O)N1C[C@@H]2CCN(C)C[C@]2(C(=O)O)C1 | -6.84 | -8.12 | -3.6 | -9.29 | 7.5 |
| CC(CCc1ccccc1)NC(=O)Cn1ccc2cc(S(=O)(=O)N3CCCCC3)ccc21 (stereo not given) | -3.52 | -0.2 | -4.33 | -5.62 | -2.19 |
| CCN1CCCC1CNC(=O)c1cc(S(=O)(=O)CC)c(N)cc1OC (stereo not given) | -0.919 | 10.5 | -2.73 | -5.93 | 0.075 |
| CCOC(=O)c1cc2n(n1)CC(C)(C(=O)NC1CCCCC1)N(c1ccc(F)cc1C)C2=O (stereo not given) | -0.193 | 4.43 | -4.2 | 2.77 | 2.21 |
| CCc1ccc(CNC(=O)c2ncn3c2C(=O)N(C2CC2)C(C)(C(=O)NCc2ccccc2OC)C3)cc1 (stereo not given) | 0.578 | 0 | 0.587 | -0.868 | 0.969 |
| CC(C)Cn1c(=O)c2ccccc2n2c(=O)n(CC(=O)Nc3cccc(F)c3)nc12 | 0.665 | 0 | 8.85 | -2.16 | 1.83 |
| O=C1CN(CC(=O)N2CCC3(CC2)OCCCC3O)C(=O)N1 (stereo not given) | 1.72 | 4.04 | 2.83 | -1.94 | 14.1 |
| Nc1ncc(C(=O)N2CCC3(CC2)[C@H](O)C[C@@H]3O)c(C(F)(F)F)n1 | -2.72 | -2.13 | -0.461 | -3.61 | 1.63 |
| COc1ccc(C(=O)CSc2nnc3n(C)c(=O)c4ccc(C(=O)NC5CCCC5)cc4n23)cc1 | -0.908 | -3.71 | 4.45 | -4.34 | -12.6 |
| CCOC(=O)Cc1ccc(NC(=O)N2CCn3c(C)ccc3C2C(C)C)cc1 (stereo not given) | 0.026 | 4.21 | -9.35 | -7.83 | -4.21 |
| CC(C)c1ccc2c(c1)C(O)CC1C(C)(CO)CCCC21C (stereo not given) | 2.57 | 5.96 | 13 | -11.7 | 3.17 |
| CN(C)C(=O)CCC(=O)N1CC[C@@](C)(O)[C@@H](Cc2ccccc2)C1 | -7.64 | -16.2 | -3.1 | -13.5 | -7.09 |
| COc1cccc([C@@H]2CN(C(=O)c3oc(C)nc3C)C[C@H]2C(=O)O)c1OC | -2.83 | -4.84 | -1.9 | -12.7 | 10.4 |
| CC(C)(C)NC(=O)Nc1cccc(Nc2ncc(F)c(NC(C)(C)CO)n2)c1 | -22 | 4.3 | 2.87 | -16.4 | 0.268 |
| CCOCCCN1C(=O)c2cc(-c3ccc(OC)cc3)nn2CC1(C)C(=O)NCc1ccccc1 (stereo not given) | 1.66 | 3.16 | 1.82 | 6.47 | -0.106 |
| Cn1c(=O)c2ccc(C(=O)NC3CCCCC3)cc2n2c(=O)n(CC(=O)c3ccccc3)nc12 | -2.9 | -4.78 | 0.056 | -6.17 | -6.47 |
| CCCN1CCN(CCCNC(=O)c2cc3n(n2)CC(C)(C(=O)NC2CCCC2)N(C)C3=O)CC1 (stereo not given) | -2.17 | 0 | 3.65 | -6.29 | -3.53 |

| SMILES | activity change, negative = inhibition [1] [%] | activity change, negative = inhibition [2] [%] | activity change, negative = inhibition [3] [%] | activity change, negative = inhibition [4] [%] | activity change, negative = inhibition [5] [%] |
| --- | --- | --- | --- | --- | --- |
| CC1(C(=O)NC2CCCCCC2)Cn2c(ccc2-c2ccco2)C(=O)N1CCc1cccc(Cl)c1 (stereo not given) | -3.31 | 4.72 | -0.764 | 1.91 | -0.797 |
| O=[S+]1([O-])NC2(CCN(Cc3ccccc3C(F)(F)F)C2)CNc2ccccc21 (stereo not given) | -9.85 | -6.85 | -5.34 | -11.4 | -9.28 |
| O=C1CC2(CCN(C(=O)C3CCN(C(=O)c4ccccc4F)CC3)CC2)Oc2ccccc2N1 | -7.53 | -6.79 | -3.16 | -7.77 | -7.64 |
| O=C(CCc1ccccc1)N1CC(Oc2ccccc2-c2nc(-c3ccccc3)no2)C1 | -4.62 | 1.91 | -1.72 | -12.5 | -3.34 |
| Cc1ccc(C(=O)N2C[C@@H](C)[C@](O)(C3CC3)C2)s1 | -5.18 | -10.6 | -4.56 | -8.29 | -6.67 |
| CC(=O)NC1(C)CCN(Cc2cccc(-c3ccc4c(ccn4C)c3)c2)C1 (stereo not given) | -12 | -11.1 | -45.1 | -18.5 | -20.8 |
| C[C@@H]1C[C@@H](O)[C@@]2(CO)C(CO)=CCC[C@@H]2[C@@]12C[C@@H](c1ccoc1)OC2=O | 2.26 | 1.9 | 7.22 | -7.31 | 1.29 |
| Cc1csc(NC(=O)c2ccc3c(c2)OCC(=O)N(C)C3)n1 | -14.5 | -10.5 | -4.08 | -16.9 | -9.12 |
| CN(C)c1ccc(C2Nc3ccc4ccccc4c3C3=C2C(=O)CC(C)(C)C3)cc1Br (stereo not given) | -3.73 | -20 | 8.7 | -42.5 | -7.66 |
| CCOc1ccccc1CN1C(=O)c2cc(C3CC3)nn2CC1(C)C(=O)NC1CCCCCC1 (stereo not given) | -1.77 | 4.63 | 2.2 | -7.34 | 0.278 |
| CCCN1C(=O)c2cc(C(=O)NCc3cc(OC)ccc3OC)nn2CC1(C)C(=O)NC1CCCC1 (stereo not given) | -5.14 | 1.87 | -5.17 | -5.93 | -3.02 |
| Cc1cc(C)cc(N2C(=O)c3cc4sccc4n3CC2(C)C(=O)NC2CCCC(C)C2C)c1 (stereo not given) | -2 | 5.25 | 0.732 | -1.76 | 1.27 |
| COc1ccc(NC(=O)Cn2c(=O)oc3cc(S(=O)(=O)N4CCCC4)ccc32)cc1 | -0.122 | 5.16 | 0.695 | 2.2 | -4.97 |
| CN1CCN(c2ccc(C(=O)Nc3n[nH]c4ccc(Cc5cc(F)cc(F)c5)cc34)c(NC3CCOCC3)c2)CC1 | -0.396 | 16.4 | -0.137 | -13.6 | 8.76 |
| Cc1ccc(NC(=O)Cn2nc3n(CCCOC(C)C)c(=O)c4ccccc4n3c2=O)cc1C | 2.54 | 0.754 | 4.24 | 1.91 | 3.83 |
| CCc1ccccc1NS(=O)(=O)c1ccc2c(c1)NC(=O)C(C)C(=O)N2 (stereo not given) | -1.64 | 1.27 | -3.79 | 2.33 | -5.2 |
| O=C(C1CCCN1[S+](=O)([O-])c1cccc(C(F)(F)F)c1)N1CCC(N2CCCC2=O)CC1 (stereo not given) | -6.01 | -4.23 | -1.46 | -8.04 | -4.06 |
| Cc1nc([C@@H]2CN(C(=O)c3ccc(Cn4ccnc4)o3)C[C@H]2C(N)=O)n[nH]1 | -0.323 | -0.665 | 0.406 | -2.46 | 13.1 |
| COC(=O)c1cc2n(n1)CC(C)(C(=O)NC1CCCC1)N(Cc1ccc(OC)cc1OC)C2=O (stereo not given) | 2.56 | 3.81 | 9.76 | 2.82 | 3.21 |

| SMILES | activity change, negative = inhibition [1] [%] | activity change, negative = inhibition [2] [%] | activity change, negative = inhibition [3] [%] | activity change, negative = inhibition [4] [%] | activity change, negative = inhibition [5] [%] |
| --- | --- | --- | --- | --- | --- |
| COc1ccc2c(c1)C=C(CN1CCCC(O)(CN(C)C)C1)CO2 (stereo not given) | -1.95 | 1.39 | -4.07 | -6.62 | 13 |
| NC(=O)CNC(=O)C1=C[C@@H](NC(=O)Cc2cccs2)[C@@H](O)[C@H](O)C1 | -2.85 | -4.37 | -0.413 | -9.32 | 7.74 |
| COc1ccccc1CC(=O)N1CCc2c(nc3cc(-c4ccccc4Cl)[nH]n3c2=O)C1 | -16.3 | -12.3 | -14 | -10.4 | -9.39 |
| COc1ccccc1NC(=O)OCC1CCN(C(=O)OC(C)(C)C)CC1 | -5.12 | 0.717 | 0.086 | -17.9 | -11.4 |
| COc1ccc(CNC(=O)c2ccc3c(=O)nc4c(-c5cccc(C)c5)n[nH]n4c3c2)cc1 | -18.3 | 1.53 | -6.75 | -11.8 | -8.19 |
| OCc1cc(CC2(NCc3ccccc3O)COC2)no1 | -2.31 | -0.588 | 1.4 | -1.62 | 11.1 |
| CCOc1ccc(N2C(=O)c3cc4sccc4n3CC2(C)C(=O)NC2CCCCCCC2)cc1 (stereo not given) | 6.82 | 2.69 | 10.2 | 10.3 | 5.58 |
| O=C(Cn1c(=O)oc2cc(S(=O)(=O)NC3CCCC3)ccc21)NCc1ccc(F)cc1 | -2.06 | 7.02 | 3.09 | 4.06 | -2.53 |
| COc1ccc(N2C(=O)c3cc4occc4n3CC2(C)C(=O)NC2CCCCCCC2)cc1OC (stereo not given) | -9.37 | -0.562 | -3.05 | 0.235 | -4.01 |
| CN(CCc1ccccn1)C(=O)CCC[C@@H]1[C@H]2CCCN3CCC[C@@H](CN1C(=O)c1ccccc1)[C@@H]23 | -5.59 | -2.07 | -5.92 | -10.3 | -6.21 |
| Cc1ccc(CNC(=O)c2ccc3c(c2)CN(Cc2scnc2C)CCO3)cc1 | -5.65 | -1.06 | -4.39 | -10.2 | -7.16 |
| CC(C)c1ccc(CN2CCCC3(CCN(c4ncccc4C(N)=O)C3)C2)cc1 (stereo not given) | -8.91 | -8.66 | -9.45 | -14 | 8.49 |
| CN(C)C[C@@H]1CN(c2ncccn2)C[C@H]1N | -2.95 | -5.55 | -1.2 | -6.68 | -0.501 |
| CCOP(=O)(Cc1ccc(C(=O)Nc2ccc(Br)cc2C#N)cc1)OCC | -6.62 | -6.3 | -11.3 | -24.6 | -11.8 |
| COc1ccc(C2(C(=O)N3CCCC(Cn4c(C)nc5cccnc54)C3)CCCCC2)cc1 (stereo not given) | -6.18 | -6.49 | -2.92 | -21.3 | -2.47 |
| COc1ccc2[nH]c(S(=O)Cc3ncc(C)c(OC)c3C)nc2n1 (stereo not given) | -0.733 | 3.92 | 7.36 | -24 | -4.79 |
| NC(=O)c1ccc2c(c1)C1(CCN(CC3CC3)C1)CN2Cc1ccccc1 (stereo not given) | -24.2 | -10.3 | -39.2 | -26.9 | -47.2 |
| C[C@@H]1O[C@@H](O[C@H]2[C@H](OC(=O)[C@]34CCC(C)(C)C[C@H]3C3=CCC5[C@@]6(C)CC[C@H](O[C@@H]7O[C@H](CO[C@@H]8OC[C@H](O)[C@H](O)[C@H]8O)[C@@H](O)[C@H](O)[C@H]7O)C(C)(C)C6CC[C@@]5(C)[C@]3(C)C[C@H]4O)OC[C@@H](O)[C@@H]2O)[C@H](O)[C@H](O[C@@H]2OC[C@](O)(CO)[C@H]2O)[C@H]1O[C@@H]1OC[C@H](O)[C@H](O[C@@H]2OC[C@@H](O)[C@H](O)[C@H]2O)[C@H]1O (stereo not given in full) | 1.33 | 4.14 | 4.03 | -3.52 | -3.91 |
| CC(=O)Oc1ccc2c(=O)c(C3NC(C(=O)O)Cc4c3[nH]c3ccccc43)coc2c1 (stereo not given) | -16.8 | -1.29 | -26.7 | -4.69 | -6.13 |

— PubChem BioAssay AID1745853 (National Center for Advancing Translational Sciences (NCATS), 2022)
